In patent US20240279281A1, “Peptide Inhibitors of Interleukin-23 Receptor” (Janssen Pharmaceutica NV, priority 2023, published 2024):
At least one compound was matched to its structure with a doubt left. Positions of bridges follow the written chain, without caps; N, C: chain ends. Non-standard residues stand in square brackets, D forms with d. Residues, ends and D or L forms follow the SMILES beside them. *: point of attachment. Trp(7-(3-AcNH-Ph)) = CC(=O)Nc1cccc(-c2cccc3c(C[C@H](N)C(=O)O)c[nH]c23)c1; 2Nal(6-OH) = N[C@@H](Cc1ccc2cc(O)ccc2c1)C(=O)O; Trp(7-Me) = Cc1cccc2c(C[C@H](N)C(=O)O)c[nH]c12; dLys(Me3) = C[N+](C)(C)CCCC[C@@H](N)C(=O)O; 3Pal(5-Me) = Cc1cncc(C[C@H](N)C(=O)O)c1; 3Pal = N[C@@H](Cc1cccnc1)C(=O)O; Ethyl(2-guanidino) = N=C(N)NCC*; Pen = CC(C)(S)[C@H](N)C(=O)O; Thp = NC1(C(=O)O)CCOCC1; X18 = C[N+](C)(C)CCCCC*; Sar = CNCC(=O)O

What was measured:
IL-23R = molecular target: T1, IL-23R (Homo sapiens, UniProt Q5VWK5); assay: IL23R Reporter Assay; format: cell-based; details: HEK293 cells containing IL-23R, IL-12Rβ1 and STAT-inducible luciferase reporter; 10 ng/mL IL-23; 5 h
T1 construct: host or cells: HEK293
T1 sequence (Q5VWK5 24-629): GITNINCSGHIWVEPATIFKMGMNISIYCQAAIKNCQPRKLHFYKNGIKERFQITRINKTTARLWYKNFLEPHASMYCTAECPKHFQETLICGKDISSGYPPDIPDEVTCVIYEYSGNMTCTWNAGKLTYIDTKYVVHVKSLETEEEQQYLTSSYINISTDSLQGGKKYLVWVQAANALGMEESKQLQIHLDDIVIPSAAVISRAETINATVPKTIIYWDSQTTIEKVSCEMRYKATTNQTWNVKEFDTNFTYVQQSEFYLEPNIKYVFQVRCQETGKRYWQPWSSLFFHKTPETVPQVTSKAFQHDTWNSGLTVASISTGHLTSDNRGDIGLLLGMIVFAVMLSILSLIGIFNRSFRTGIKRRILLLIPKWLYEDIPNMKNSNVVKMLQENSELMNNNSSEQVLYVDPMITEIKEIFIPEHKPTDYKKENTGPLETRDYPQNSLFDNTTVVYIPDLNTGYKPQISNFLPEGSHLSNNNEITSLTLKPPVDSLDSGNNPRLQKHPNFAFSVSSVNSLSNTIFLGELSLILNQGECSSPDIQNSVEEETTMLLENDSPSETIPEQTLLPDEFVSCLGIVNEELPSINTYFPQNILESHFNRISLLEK
Protocol: Compounds were serially diluted in 100% (v/v) DMSO) and plated using an Echo acoustic dispenser (Labcyte) into 1536-well non-treated black assay plates (Corning #9146). […] After 5 h at 37° C., 5% CO2, 95% relative humidity, cells were placed at 20° C. and treated with BioGlo reagent (Promega) according to the Manufacturer's instructions. Luminescence was measured on a Pherastar FSX (BMG LabTech).

[1] = molecular target: T2, IL-23-stimulated phosphorylated STAT3 in peripheral blood mononuclear cells (PBMCs) (Homo sapiens, UniProt Q5VWK5); assay: PBMC pSTAT3 Assay; format: cell-based; details: PBMCs from healthy donors, IL-23 5 ng/mL, 30 minutes
T2 sequence (Q5VWK5 24-629): T1 sequence (Q5VWK5 24-629)
Protocol: Cryopreserved peripheral blood mononuclear cells (PBMCs) from healthy donors were thawed and washed twice in ImmunoCult-XF T cell expansion medium (XF-TCEM) supplemented with CTL anti-aggregate wash. The cells were counted, resuspended at 2-6×10^5 cells per mL XF-TCEM supplemented with penicillin/streptomycin and 100 ng/mL IL-1β (BioLegend, 579404), and cultured in tissue culture flasks coated with anti-CD3 (eBioscience, 16-0037-85 or BD Pharmingen, 555329) at 37° C. in 5% CO2. On day 4 of culture, PBMCs were collected, washed twice in RPMI-1640 supplemented with 0.1% BSA (RPMI-BSA), and incubated in RPMI-BSA in upright tissue culture flasks for ˜4 hours at 37° C. in 5% CO2. Following this ‘starvation,’ a total of 6×10^4 cells in 30 μL RPMI-BSA was transferred into each well of a 384-well plate pre-spotted with peptide or DMSO. The cells were incubated for 30 minutes prior to the addition of IL-23 at a final concentration of 5 ng/mL. The cells were stimulated with cytokine for 30 minutes at 37° C. in 5% CO2, transferred onto ice for 10 minutes, and lysed. Cell lysates were stored at −80° C. until phosphorylated STAT3 was measured using the phospho-STAT panel kit (Meso Scale Discovery, K15202D).

Structure (SMILES) | IC50 (IL-23R) [nM] | IC50 [1] [nM]
CC(=O)NCCCC[C@@H]1NC(=O)[C@H](Cc2c[nH]c3c(-c4cccc(NC(C)=O)c4)cccc23)NC(=O)[C@H]([C@@H](C)O)NC(=O)[C@H](CC(N)=O)NC(=O)[C@@H](NC(=O)[C@@H](CCCNC(=N)N)NC(C)=O)C(C)(C)SSC(C)(C)[C@@H](C(=O)N[C@@H](Cc2ccc(OCCCCC[N+](C)(C)C)cc2)C(=O)N[C@@H](Cc2ccc3cc(O)ccc3c2)C(=O)NC2(C(=O)N[C@@H](CCC(=O)O)C(=O)N[C@@H](CC(N)=O)C(=O)N[C@@H](Cc3cncc(C)c3)C(=O)N(C)CC(N)=O)CCOCC2)NC1=O [compound 20] (Ac-[dR][Pen]NT[Trp(7-(3-AcNH-Ph))]K(Ac)[Pen]Y(X18)[2Nal(6-OH)][Thp]EN[3Pal(5-Me)][Sar]-NH2; disulfide 2-7; N-terminus and C-terminus assumed) | < 10 | 0.01 to 0.1
CC(=O)NCCCC[C@@H]1NC(=O)[C@H](Cc2c[nH]c3c(C)cccc23)NC(=O)[C@H]([C@@H](C)O)NC(=O)[C@H](CC(N)=O)NC(=O)[C@@H](NC(=O)[C@@H](CCCC[N+](C)(C)C)NC(C)=O)C(C)(C)SSC(C)(C)[C@@H](C(=O)N[C@@H](Cc2ccc(OCCNC(=N)N)cc2)C(=O)N[C@@H](Cc2ccc3cc(O)ccc3c2)C(=O)NC2(C(=O)N[C@@H](CCC(=O)O)C(=O)N[C@@H](CC(N)=O)C(=O)N[C@@H](Cc3cccnc3)C(=O)N(C)CC(N)=O)CCOCC2)NC1=O [compound 30] (Ac-[dLys(Me3)][Pen]NT[Trp(7-Me)]K(Ac)[Pen]Y(Ethyl(2-guanidino))[2Nal(6-OH)][Thp]EN[3Pal][Sar]-NH2; disulfide 2-7; N-terminus and C-terminus assumed) | < 10 | 0.01 to 0.1

The remaining lines, values ahead:

IC50 (IL-23R) [nM] | IC50 [1] [nM] | Structure (SMILES)
< 10 | < 0.01 | CC(=O)NCCCC[C@@H]1NC(=O)[C@H](Cc2c[nH]c3c(C)cccc23)NC(=O)[C@H]([C@@H](C)O)NC(=O)[C@H](CC(N)=O)NC(=O)[C@@H](NC(=O)[C@@H](CCCNC(=N)N)NC(C)=O)C(C)(C)SSC(C)(C)[C@@H](C(=O)N[C@@H](Cc2ccc(OCCNC(=N)N)cc2)C(=O)N[C@@H](Cc2ccc3cc(O)ccc3c2)C(=O)NC2(C(=O)N[C@@H](CCC(=O)O)C(=O)N[C@@H](CC(N)=O)C(=O)N[C@@H](Cc3cccnc3)C(=O)N(C)CC(N)=O)CCOCC2)NC1=O [compound 32] (Ac-[dR][Pen]NT[Trp(7-Me)]K(Ac)[Pen]Y(Ethyl(2-guanidino))[2Nal(6-OH)][Thp]EN[3Pal][Sar]-NH2; disulfide 2-7; N-terminus and C-terminus assumed)
< 10 | < 0.01 | CC(=O)NCCCC[C@@H]1NC(=O)[C@H](Cc2c[nH]c3c(-c4cccc(NC(C)=O)c4)cccc23)NC(=O)[C@H]([C@@H](C)O)NC(=O)[C@H](CC(N)=O)NC(=O)[C@@H](NC(=O)[C@@H](CCCC[N+](C)(C)C)NC(C)=O)C(C)(C)SSC(C)(C)[C@@H](C(=O)N[C@@H](Cc2ccc(OCCNC(=N)N)cc2)C(=O)N[C@@H](Cc2ccc3cc(O)ccc3c2)C(=O)NC2(C(=O)N[C@@H](CCC(=O)O)C(=O)N[C@@H](CC(N)=O)C(=O)N[C@@H](Cc3cccnc3)C(=O)N(C)CC(N)=O)CCOCC2)NC1=O [compound 33] (Ac-[dLys(Me3)][Pen]NT[Trp(7-(3-AcNH-Ph))]K(Ac)[Pen]Y(Ethyl(2-guanidino))[2Nal(6-OH)][Thp]EN[3Pal][Sar]-NH2; disulfide 2-7; N-terminus and C-terminus assumed)
< 10 | 0.01 to 0.1 | CC(=O)NCCCC[C@@H]1NC(=O)[C@H](Cc2c[nH]c3c(-c4cccc(NC(C)=O)c4)cccc23)NC(=O)[C@H]([C@@H](C)O)NC(=O)[C@H](CC(N)=O)NC(=O)[C@@H](NC(=O)[C@@H](CCCNC(=N)N)NC(C)=O)C(C)(C)SSC(C)(C)[C@@H](C(=O)N[C@@H](Cc2ccc(OCCNC(=N)N)cc2)C(=O)N[C@@H](Cc2ccc3cc(O)ccc3c2)C(=O)NC2(C(=O)N[C@@H](CCC(=O)O)C(=O)N[C@@H](CC(N)=O)C(=O)N[C@@H](Cc3cccnc3)C(=O)N(C)CC(N)=O)CCOCC2)NC1=O [compound 35] (Ac-[dR][Pen]NT[Trp(7-(3-AcNH-Ph))]K(Ac)[Pen]Y(Ethyl(2-guanidino))[2Nal(6-OH)][Thp]EN[3Pal][Sar]-NH2; disulfide 2-7; N-terminus and C-terminus assumed)
